# The shares of active, inactive and inconclusive entries below differ from those in the screen. For some of these results: Potencies of inconclusive entries are left out as doubtful fits. The source made the active and inactive calls. Unless noted, calls come from the whole dose curve; as a rule, active = well fitted curve in the direction sought with a large enough effect in the repeat runs; inconclusive = weak or mixed curves; inactive = no such curve, though single readings can be large; an effect the other way counts as inactive or inconclusive.
# How the values were obtained:
# [1] = Caspase-3/7 induction in HepG2 cells by small molecules, qHTS cell viability counter screen (AID 1346981); note: nearly all actives have a fitted effect of over 30% in size; note: potency is the fitted concentration of half-maximal effect
# Method in brief: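 Wild-type HepG2 cells (2,000/well) were allowed to settle for 5 hr at 37 C, 5% CO2, then dosed with compounds in DMSO by pin transfer. After 16 hr at 37 C, CellTiter-Fluor was added and fluorescence read 1 hr later.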
# [2] = Caspase-3/7 induction in CHO-K1 cells by small molecules, qHTS cell viability counter screen (AID 1346979); note: nearly all actives have a fitted effect of over 35% in size; note: potency is the fitted concentration of half-maximal effect
# Method in brief: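 Seeding: 1,500 CHO-K1 cells/well. Rest: 5hr, 37C. Treatment: compounds in DMSO, 16hr. Read: CellTiter-Fluor, 1hr, fluorescence.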
# [3] = target: Cytochrome P450 2C19 (Homo sapiens) (UniProt P33261); test: Cytochrome P450 Family 2 Subfamily C Member 19 (CYP2C19) small molecule antagonists: luciferase reporter qHTS assay (AID 1671197); note: nearly all actives have a fitted effect of over 65% in size; note: potency is the fitted concentration of half-maximal effect
# Method in brief: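 Light output is proportional to CYP2C19 activity: proluciferin substrate is converted to luciferin, then detected by a luciferin detection reagent that also stops the 1 h, 37C NADPH-driven reaction. Ketoconazole serves as positive control.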
# [4] = target: Nuclear receptor subfamily 1 group I member 2 (Homo sapiens) (UniProt O75469); test: Human pregnane X receptor (PXR) small molecule agonists, qHTS assay (AID 1346982); note: potency is the fitted concentration of half-maximal effect; nearly all actives have a fitted effect of over 35% in size
# Method in brief: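 PXR-Luc HepG2 cells (CYP3A4 promoter-driven luciferase) were seeded in medium with 5% charcoal-stripped FBS, left 5 hr at 37 C, then exposed to compounds in DMSO for 24 hr. Luminescence was read after ONE-Glo addition.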
# [5] = target: Cytochrome P450 2D6 (Homo sapiens) (UniProt P10635); test: Cytochrome P450 Family 2 Subfamily D Member 6 (CYP2D6) small molecule antagonists: luciferase reporter qHTS assay (AID 1671196); note: potency is the fitted concentration of half-maximal effect; nearly all actives have a fitted effect of over 50% in size
# Method in brief: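 CYP2D6 enzyme–substrate mix was held with compound for 10 min at room temperature, then NADPH regeneration solution was added and the reaction ran 1 h at room temperature. Luciferin product was detected by luminescence after 20 min with detection reagent.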
# [6] = target: Nuclear receptor subfamily 1 group I member 2 (Rattus norvegicus) (UniProt Q9R1A7); test: Rat pregnane X receptor (rPXR) activation by small molecules, qHTS assay (AID 1346983); conditions: rPXR luciferase reporter cells, One-Glo luminescence, 24 h; max activation: active compounds read high; note: % is set by controls: 0 for no effect and ±100 for the full control effect; nearly all actives have a fitted effect of over 20% in size
# Method in brief: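 Cell-based rPXR activation assay: rPXR cells, 2,000 per well, rested 5hr at 37 C, then exposed to compounds in DMSO for 24 hr at 37 C. Luciferase activity read by One-Glo luminescence after 30 min at room temperature.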
# [7] = target: Acetylcholinesterase (Homo sapiens) (UniProt P22303); test: Acetylcholinesterase (AChE) small molecule antagonists: colormetric cell-based qHTS assay (AID 1347395; calls by dose curve; note: potency is the fitted concentration of half-maximal effect; nearly all actives have a fitted effect of over 30% in size)
# Method in brief: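 Quantitative HTS in attached SH-SY5Y cells: 30 min compound exposure, then 90 min with acetylthiocholine and DTNB at 37 C; colour from thiocholine reports AChE activity.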
# Tags give direction and shape of the fitted curve.
# UniProt O75469, sequence (O75469 whole entry, looked up): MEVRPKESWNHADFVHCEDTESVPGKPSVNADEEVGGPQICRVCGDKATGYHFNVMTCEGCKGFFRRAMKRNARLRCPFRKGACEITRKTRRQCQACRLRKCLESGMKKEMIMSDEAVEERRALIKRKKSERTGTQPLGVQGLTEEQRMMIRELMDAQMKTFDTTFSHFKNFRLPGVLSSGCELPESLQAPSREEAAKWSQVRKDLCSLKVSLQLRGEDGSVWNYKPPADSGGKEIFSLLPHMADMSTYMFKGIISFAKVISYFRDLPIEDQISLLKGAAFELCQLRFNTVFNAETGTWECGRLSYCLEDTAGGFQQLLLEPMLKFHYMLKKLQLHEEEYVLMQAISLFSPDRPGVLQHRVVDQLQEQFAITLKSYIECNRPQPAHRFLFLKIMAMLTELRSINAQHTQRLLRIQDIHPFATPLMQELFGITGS
# UniProt P33261, sequence (P33261 whole entry, looked up): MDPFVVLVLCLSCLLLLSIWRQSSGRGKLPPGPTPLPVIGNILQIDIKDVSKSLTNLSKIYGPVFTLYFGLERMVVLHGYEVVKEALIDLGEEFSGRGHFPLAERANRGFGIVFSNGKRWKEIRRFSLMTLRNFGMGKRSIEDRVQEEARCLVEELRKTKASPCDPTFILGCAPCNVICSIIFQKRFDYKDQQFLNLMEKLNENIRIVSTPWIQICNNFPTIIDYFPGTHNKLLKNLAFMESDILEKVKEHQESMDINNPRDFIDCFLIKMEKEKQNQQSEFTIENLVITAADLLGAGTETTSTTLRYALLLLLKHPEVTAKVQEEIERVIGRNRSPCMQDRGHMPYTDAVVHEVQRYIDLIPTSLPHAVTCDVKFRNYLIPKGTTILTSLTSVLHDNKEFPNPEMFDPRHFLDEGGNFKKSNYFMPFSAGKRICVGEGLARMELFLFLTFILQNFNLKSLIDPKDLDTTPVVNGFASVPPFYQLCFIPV
# UniProt P22303, sequence (P22303 whole entry, looked up): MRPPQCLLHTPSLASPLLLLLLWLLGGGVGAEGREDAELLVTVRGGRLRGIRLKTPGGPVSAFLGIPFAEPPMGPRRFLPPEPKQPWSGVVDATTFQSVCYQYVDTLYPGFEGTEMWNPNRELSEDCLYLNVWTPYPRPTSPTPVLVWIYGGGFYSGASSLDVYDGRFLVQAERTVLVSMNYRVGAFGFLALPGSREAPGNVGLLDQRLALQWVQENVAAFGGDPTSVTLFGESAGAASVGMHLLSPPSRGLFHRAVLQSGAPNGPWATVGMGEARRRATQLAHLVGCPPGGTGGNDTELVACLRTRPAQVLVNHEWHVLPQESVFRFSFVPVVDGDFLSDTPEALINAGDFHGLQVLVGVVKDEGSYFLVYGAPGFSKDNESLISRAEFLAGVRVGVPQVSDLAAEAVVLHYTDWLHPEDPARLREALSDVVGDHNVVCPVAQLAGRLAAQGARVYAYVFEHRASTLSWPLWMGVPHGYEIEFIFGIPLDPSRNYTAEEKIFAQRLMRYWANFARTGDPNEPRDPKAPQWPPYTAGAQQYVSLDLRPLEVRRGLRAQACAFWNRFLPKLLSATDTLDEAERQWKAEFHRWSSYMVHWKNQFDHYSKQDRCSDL
# UniProt Q9R1A7, sequence (Q9R1A7 whole entry, looked up): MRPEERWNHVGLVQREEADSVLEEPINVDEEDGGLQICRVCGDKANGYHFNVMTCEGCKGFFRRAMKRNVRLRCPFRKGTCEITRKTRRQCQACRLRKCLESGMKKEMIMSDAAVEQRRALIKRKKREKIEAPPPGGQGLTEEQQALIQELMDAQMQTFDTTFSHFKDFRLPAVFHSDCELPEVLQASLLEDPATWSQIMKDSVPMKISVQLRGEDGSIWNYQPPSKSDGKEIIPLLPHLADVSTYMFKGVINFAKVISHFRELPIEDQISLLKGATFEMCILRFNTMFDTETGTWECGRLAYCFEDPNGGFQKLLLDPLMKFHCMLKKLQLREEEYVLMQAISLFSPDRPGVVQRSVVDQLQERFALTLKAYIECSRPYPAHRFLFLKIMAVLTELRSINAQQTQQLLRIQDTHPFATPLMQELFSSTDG
# UniProt P10635, sequence (P10635 whole entry, looked up): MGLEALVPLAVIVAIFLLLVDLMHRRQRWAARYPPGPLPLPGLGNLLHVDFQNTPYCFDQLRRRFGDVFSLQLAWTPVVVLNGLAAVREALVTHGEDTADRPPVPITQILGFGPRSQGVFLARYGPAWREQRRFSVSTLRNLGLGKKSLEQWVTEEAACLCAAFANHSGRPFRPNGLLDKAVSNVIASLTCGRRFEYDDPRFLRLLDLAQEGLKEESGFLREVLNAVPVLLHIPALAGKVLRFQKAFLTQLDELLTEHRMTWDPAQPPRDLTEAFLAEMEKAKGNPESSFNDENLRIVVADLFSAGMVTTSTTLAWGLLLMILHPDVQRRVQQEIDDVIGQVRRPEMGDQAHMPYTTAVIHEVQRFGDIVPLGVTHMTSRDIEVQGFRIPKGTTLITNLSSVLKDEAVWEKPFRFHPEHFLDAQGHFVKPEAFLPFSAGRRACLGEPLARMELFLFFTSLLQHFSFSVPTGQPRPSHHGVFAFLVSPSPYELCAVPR
compound,measurement,setting,value
Cl/C=C\Cl,Potency,[1],"inconclusive [cytotoxic, single point]"
O=C(O)CCCCCCNC1c2ccccc2CCc2ccccc21,Potency,[1],inactive
O=C(Cl)OCCOCCOC(=O)Cl,Potency,[2],"inconclusive [cytotoxic, single point]"
same,Potency,[3],"inconclusive [inhibitor, single point]"
Cc1cccc(N)c1C,Potency,[1],inactive
same,Potency,[4],"inconclusive [activator, partial curve, poor fit]"
same,Potency,[5],"inconclusive [inhibitor, full curve]"
CCCSP(=O)(OCC)SCCC,Potency,[1],"inconclusive [cytotoxic, partial curve]"
Clc1ccc(C2(Cn3cncn3)OCCO2)c(Cl)c1,Potency,[1],"inconclusive [rising, partial curve, poor fit]"
same,Potency,[4],"inconclusive [activator, partial curve]"
same,max activation,[6],inactive: -0.146%
same,Potency,[7],"inconclusive [inhibitor, single point]"
C=CCCl,Potency,[2],inactive
same,Potency,[3],inactive
O=C(O)C(Br)Br,Potency,[1],inactive
C[C@H]1CNCCc2ccc(Cl)cc21,Potency,[1],inactive
